Results taken from the supplement of paper PMC11417369.
The other results are listed elsewhere or left out.

system: PfHDP1 homeodomain (GST-tagged); assay: gcPBM binding intensity (ln(normalized median fluorescence intensity)); higher = stronger DNA binding
Procedure, shortened: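 In this array assay, P. falciparum DNA-binding domains with a GST tag, expressed in E. coli, were applied for 1 h to primer-extended double-stranded 36-bp intergenic genomic probes and negative controls on an Agilent 4 × 180k array. Bound protein was visualised with Alexa488 anti-GST antibody at 488 nm. Binding intensity is the highest Masliner-normalised natural-log median intensity across replicate spots of either probe orientation.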

In order of falling “gcPBM binding intensity (ln)” value:
1. TTGTTGTGTATTATCGTGCACATAATATAAAAGATT  10.5
2. ATTATATACATTTTAGTGCATTACATAATAATATAA [GTGCAC_site9836]  10.4
3. TGTGTTCATATATGCACACGCATATATATTATTGTT [CACACA_site3822]  9.67
4. TGATATTTCATCATAGTGCAATATGGCATATAAATA [GTGCAC_site9433]  9.54
5. ATTAAACATAAATATGCACACATATACATATATTCA [CACACA_site8850]  9.5
6. ATAAAAAAAAAAAATACACACATATATATATATATA [CACACA_site1709]  9.35
7. ACTATTTAATATAGGGTGCAACTTTTTCAAGTAAAT [GTGCAC_site9853]  9.13
8. GTAGTACATTCTAGAATACACACCTATATATATATA [CACACA_site522]  9.04
9. TGTGTCCATTGAACAGTGCAATAAAAACTTTTACAT  8.77
10. TTTCTTTTTTGATGCGTGCACATTTGTTTATTTTTC [GTGCAC_site9792]  8.48
11. TATCTTTTTACAATAGTGCATATGTTATCATTAATA [GTGCAC_site9489]  8.36
12. TTATACTTTGGGTGGTGTACTATATTATGCTTATAA [XGTACX_site1106]  7.63
13. TTTATTTATTAATACACACACACACCCAGACAAAAT [CACACA_site4292]  7.6
14. TAATTTATAACACGCGCACACATATATATATAGTAA [CACACA_site121]  7.29
15. TGTAATAAACTACTTTTTTTTTTTTTTTTTTTTTTT [CACACA_negctrl_site1021]  7.2
16. GTATATATCTCAGAGCATAATAGTATAATTCGGTCA [CACACA_negctrl_site876]  7.19
17. CCCCATTTATCTTAAGCATGCCATGGTTTTAGATAT [TGCATGCA_site24]  7.16
18. ATTTGCCCATTTAATTAACACACAAATGTTTATATT [CACACA_site8145]  7.02
19. TATTTCAAAATATGGGTGCAGTTCTTCATGATATAT [GTGCAC_site9658]  7.01
20. ACCTCATAATATTTAACACACAAAATTATCTGTATG [CACACA_site5015]  6.94
21. ATAAAAAAAAATATATGTACATATATAAATTGATAT [XGTACX_site7409]  6.94
22. CATATATACAGTAACACACACAAAAAAATATGAATA [CACACA_site3996]  6.91
23. GTATGCATTATATACACACATACATTTATATATTCT [CACACA_site115]  6.9
24. AAAAAAAAAAAACACACACACACACCGATACATACA [CACACA_site8849]  6.8
25. TTATAGACATATATAGGTACACATATTTTCAATCCC [XGTACX_site8230]  6.79
26. CAGAAATATTCTTATACACACTGTTCTTATATTCCT [CACACA_site4318]  6.77
27. AATTATTTTAGAAACACACAAATTAGAAAAAACATA [CACACA_site7673]  6.76
28. CTTTTTTTTTTGTATTGTACTTTATTTTTACATCGT [XGTACX_site2918]  6.75
29. ATTTATTAATCATATACACACATATATTTGTATTTA [CACACA_site1336]  6.74
30. AATATATATATAAATAGTACATATAAAGAGAATTTT [XGTACX_site3168]  6.69
31. CTATAATATTATAACAGTACATAATATTATATATAT [XGTACX_site1414]  6.67
32. TGAAATGAAAGAACAGCACACATATATATTATATAT [CACACA_site8613]  6.66
33. AGATATATAAATATTACACACTATATATCTATTTAT [CACACA_site6466]  6.64
34. GTTCTAAAAGTTAATGCATGTTATAAGTTTCCCTCT [TGCATGCA_site94]  6.53
35. TTCTTAAAAAATCAAACACACATATATAAATACATA [CACACA_site5301]  6.52
36. TATTTTTTTAAAATAGGTACACAATCAAACATTTAT [XGTACX_site8785]  6.51
37. AATAACATTATTTTATGTACACATGAAAAATAAAAT [XGTACX_site4657]  6.5
38. ATTTTTAATTTTTTCACACATATATTTAAAATAAAA [CACACA_site4799]  6.49
39. TTTAAATAAAAATGGAGTACTCTAAAAAAAAAAAAA [XGTACX_site1233]  6.47
40. TATATTTTTTAAAAAAGTACAAAGTAATTATTGATT [XGTACX_site2420]  6.47
41. TTTCTTTTTAACTCTTACATAATAGGTGGTAGAAGG [TGCATGCA_negctrl_site176]  6.47
42. ATGTATATATTTACGTGTACATATTCATGTGATATC [XGTACX_site5871]  6.46
43. AAAGACGTTTATAAATGTACATACACTTTAAAAGTT [XGTACX_site8753]  6.45
44. TTTATCTTTTTTTGTTGTACAGATGTTTATATTTTA [XGTACX_site4065]  6.43
45. TGCTATTTTTTCCTTTTTTTGTATCACAATCATATA [CACACA_negctrl_site1576]  6.41
46. AGTAATAAAAGTAGAAGTACAATACTTCAAAGATAT [XGTACX_site8562]  6.38
47. AATATCAAAATAACATGTACATGTTATATTTTATTT [XGTACX_site5891]  6.35
48. AATAGTGTCATAAAAACTATTATCATATAATGTGAA [CACACA_negctrl_site1578]  6.28
49. TTATTTATTTATTATAGTTCACTTGAAAATACAAGA [CACACA_negctrl_site1480]  6.27
50. ATTAAAACAAAATGTACACACATATAATTTAATGAC [CACACA_site878]  6.27
51. ATTCTAATTTTATGAAACGATTATTTTGAATTCATT [XGTACX_negctrl_site578]  6.26
52. AAAGGGGAAAATATTATACATATAATAAATCCGTAT [XGTACX_negctrl_site355]  6.26
53. TTTTTTTTTTTGTGGTGTACCTTTATTTCCTTTTAG [XGTACX_site6934]  6.18
54. ATATGAAAAACTTCATGTACTTATTATAAAATATAA [XGTACX_site2725]  6.01
55. AAAAAATATAAAAAAACACACAAAAAAAAAAAAAAA [CACACA_site1382]  5.98
56. GATTACCTTTTTTTTTTTTTTTTTTTTTTTTTTTTC [CACACA_negctrl_site147]  5.86
